Reference: the supplement of paper PMC11417369
This is one part of the list.

The sequences below were run on PfAP2-HC AP2 domain (GST-tagged) (assay: gcPBM binding intensity (ln(normalized median fluorescence intensity)); higher = stronger DNA binding).
In short: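 An Agilent 4 × 180k array carrying primer-extended double-stranded 36-bp intergenic genomic probes and negative controls received GST-tagged P. falciparum DNA-binding domains expressed in E. coli, about 25 μg on average, for 1 h. The binding buffer contained 1× PBS, 1% milk, 0.2 mg/ml BSA, 0.5% salmon testes DNA and 0.03% Triton X-100. Binding intensity is the top Masliner-normalised natural-log median intensity across replicate spots of either probe orientation, read after Alexa488 anti-GST antibody staining and a 488 nm scan.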
For “AAAAAAAAAAAAAAAAGTACACACTTTTGCCTACAT [XGTACX_site6583]”, the “gcPBM binding intensity (ln)” value was 9.73.
For “AATAATTGCTAAAGGTGTACAATACGTATATAAGAA [XGTACX_site4910]”, the “gcPBM binding intensity (ln)” value was 9.95.
For “TACAGAAATTTATATATATATATATATATATATATA [XGTACX_negctrl_site209]”, the “gcPBM binding intensity (ln)” value was 9.61.
With “AAATCAAAAACGTTTACACACATTCTTATTTAAATA [CACACA_site790]” the “gcPBM binding intensity (ln)” value was 9.79.
With “TGAGACATGAATGCAAGTACAAAAAGGAGAACAAAA [XGTACX_site6183]” the “gcPBM binding intensity (ln)” value was 9.67.
With “TACATATATTTTTTATGTACTTACTTGTGTGTTTAT [XGTACX_site5126]” the “gcPBM binding intensity (ln)” value was 9.87.
For “AAATGTTGAAATGATACACACATATATATATATATA [CACACA_site2517]”, the “gcPBM binding intensity (ln)” value was 9.71.
With “TTTATTAAAACAAAATGTACACACATATAATTTAAT [XGTACX_site1637]” the “gcPBM binding intensity (ln)” value was 9.7.
With “TAAATTCTGTTTAAAAGTACAAATAATATTGTGCCT [XGTACX_site7805]” the “gcPBM binding intensity (ln)” value was 9.53.
“TTAATCTTCATAAAATGTACAGAAGATTGAATATTC [XGTACX_site6213]” was tested, and the “gcPBM binding intensity (ln)” value was 9.35.
“TGAAAGTGTATTAAAGTGCATATTATTTTATCTACC [GTGCAC_site9969]” was tested, and the “gcPBM binding intensity (ln)” value was 9.69.
With “TTAATAACAAAATAAACACACATATATAAATACACA [CACACA_site6849]” the “gcPBM binding intensity (ln)” value was 10.5.
“TTATATTTTTTTTGTAGTACATTATAGAATACACAC [XGTACX_site969]” was tested, and the “gcPBM binding intensity (ln)” value was 9.79.
With “ATATATATTCATAATACACACATTCTGTAGCATTAT [CACACA_site2067]” the “gcPBM binding intensity (ln)” value was 9.9.
In the case of “ATAGTATCTGGTAGCTGTACGAATGGTAGAGAGTAG [XGTACX_site2548]”, the “gcPBM binding intensity (ln)” value is reported as 10.1.
With “AATAAAAAGATATTCTCCTTGTTCCTTTTTTTTAAA [CACACA_negctrl_site1147]” the “gcPBM binding intensity (ln)” value was 9.46.
In the case of “TATATATATGTATGATGTACATATATGCATATATAT [XGTACX_site3399]”, the “gcPBM binding intensity (ln)” value is reported as 9.6.
For “TTAATTAAATATTATACACACAAAAAAATAATTTTA [CACACA_site96]”, the “gcPBM binding intensity (ln)” value was 9.61.
With “ATTTTAACCAATTATTGTACTTGGTTATTCTTTTTT [XGTACX_site7453]” the “gcPBM binding intensity (ln)” value was 9.93.
“AATCTATATTGACACACACACAAAAAAAAAAAAAAA [CACACA_site6739]” was tested, and the “gcPBM binding intensity (ln)” value was 10.1.
“ATATTTTTTTTCTTCACACACATGAATTATATATAA [CACACA_site3216]” was tested, and the “gcPBM binding intensity (ln)” value was 9.98.
“ATATATATATTAAAGGTGCACAAATAAATATATACA [GTGCAC_site9532]” was tested, and the “gcPBM binding intensity (ln)” value was 9.87.
“AATATACACATTGTGAAATAACAAAAAAGGCAAAAA [CACACA_negctrl_site1014]” was tested, and the “gcPBM binding intensity (ln)” value was 10.
With “CCTATTTATATATACACACACATATATAAATAAATA [CACACA_site2991]” the “gcPBM binding intensity (ln)” value was 10.1.
